# Measured values as given in PubChem BioAssay AID488969 (Vanderbilt High Throughput Screening Facility, 2010).
# Over roughly 110,000 compounds, “z-score” has its median near -0.1; the highest 2% begin near 2. Some of the results follow. Active and inactive are the calls of the source.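 The calls were made as follows: active = z-score in the third read window above 3 or below -3; inactive = the rest.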
# Molecular target: Metabotropic glutamate receptor 8 (Rattus norvegicus) (UniProt P70579)
# Assay: rat mGluR8 modulators via GIRK flux, primary screen, cell-based, thallium flux, HTS (AID 488969)
# Conditions: HEK293 rat mGluR8, GIRK (G protein-gated inwardly rectifying potassium channel) thallium flux, FluoZin2; at 10 µM; stronger effect = higher value; submaximal glutamate (EC20) added with thallium
# Sequence of UniProt P70579 (P70579 whole entry, looked up): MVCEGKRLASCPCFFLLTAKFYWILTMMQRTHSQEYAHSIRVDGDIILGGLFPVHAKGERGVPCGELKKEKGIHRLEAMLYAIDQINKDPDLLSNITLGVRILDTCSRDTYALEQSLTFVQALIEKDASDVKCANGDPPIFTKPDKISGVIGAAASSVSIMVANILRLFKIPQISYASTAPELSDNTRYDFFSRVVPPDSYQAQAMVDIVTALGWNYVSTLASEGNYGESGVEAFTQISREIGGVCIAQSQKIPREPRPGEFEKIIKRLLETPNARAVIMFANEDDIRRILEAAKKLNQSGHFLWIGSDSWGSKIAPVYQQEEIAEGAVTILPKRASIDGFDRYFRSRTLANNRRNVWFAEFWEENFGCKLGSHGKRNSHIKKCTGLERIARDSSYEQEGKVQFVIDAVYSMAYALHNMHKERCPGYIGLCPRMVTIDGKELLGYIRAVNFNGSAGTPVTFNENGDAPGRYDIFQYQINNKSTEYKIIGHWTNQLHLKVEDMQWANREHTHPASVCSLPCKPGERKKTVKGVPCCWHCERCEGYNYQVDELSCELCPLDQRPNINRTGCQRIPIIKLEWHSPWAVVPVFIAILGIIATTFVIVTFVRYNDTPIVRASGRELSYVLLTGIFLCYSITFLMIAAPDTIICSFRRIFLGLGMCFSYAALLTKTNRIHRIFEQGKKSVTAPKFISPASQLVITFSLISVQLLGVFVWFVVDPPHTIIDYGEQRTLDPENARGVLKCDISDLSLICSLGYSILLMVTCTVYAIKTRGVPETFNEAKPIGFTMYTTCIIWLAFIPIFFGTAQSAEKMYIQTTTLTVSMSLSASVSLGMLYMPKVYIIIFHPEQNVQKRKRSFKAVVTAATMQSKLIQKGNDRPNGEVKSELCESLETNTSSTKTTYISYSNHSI
row,SMILES,z-score
1,CCOC(=O)c1[nH]c2ccccc2c1NC(=O)NC1CCCCC1,-0.294
2,O=C(NCCCn1ccnc1)c1ccccc1NS(=O)(=O)c1ccc(F)c(F)c1,-0.249
3,CCOC(=O)/C(C#N)=C\c1c(C)cc(C)c(COC(C)=O)c1C,-0.12
4,Cc1cccc(N2CCN(C(=O)C34CC5CC(CC(C5)C3)C4)CC2)c1C,0.335
5,CCN(CC(=O)NCc1ccccn1)S(=O)(=O)c1ccc(Cl)cc1,0.0295
6,CC(C)(C)NC(NC(=O)Cc1ccccc1)C(Cl)(Cl)Cl (stereo unspecified),-0.194
7,CCCCCC(=O)NC(=S)Nc1ccccc1C(=O)OC,0.197
8,CCCC(=O)Nc1nnc(CC(=O)N2CCCC2)s1,-0.177
9,CCOC(=O)C1CCCN(C(=O)c2sc3nc(-c4ccc(F)cc4)cn3c2C)C1 (stereo unspecified),0.112
10,CCOC(=O)N1CCC(NC(=O)c2cccn3c(=O)c4cc(Br)ccc4nc23)CC1,-1.28
11,Cc1cc(C)cc(N(C(C)C(=O)Nc2c(C)n(C)n(-c3ccccc3)c2=O)S(C)(=O)=O)c1 (stereo unspecified),-0.399
12,CCCCN(C)Cc1c(C)[nH]c2c(Cl)cccc2c1=O,0.173
13,COc1ccc(NS(=O)(=O)c2ccc3c(c2)Cc2ccccc2-3)cn1,-0.0264
14,CC1CC(c2ccccc2)n2nc(NC(=O)c3cccs3)nc2N1 (stereo unspecified),-0.14
15,Cc1ccc(S(=O)(=O)NCCCNC(=O)c2ccccc2)cc1,0.418
16,OC(CN1CCCCC1)CN1CCCCC1,-0.0343
17,Oc1ccc(Br)cc1/C=N/n1cnc2ccccc21,2.45
18,COc1cc(C)nc(SCC(N)=O)n1,-0.0477
19,O=C(c1ccccc1)c1c[nH]c(C(=O)NCc2cccnc2)c1,0.181
20,COc1ccc(NC(=O)CCN2CCCC2)c(OC)c1,0.293
21,Cc1ccc(CNC(=O)CSc2nc3ccccc3c3nc(C)nn23)cc1,-0.228
22,CCOC(=O)/C(C#N)=C1/C=CNC(=O)N1,-0.0309
23,Cc1cc(C)nc(Nc2ccc(C(=O)O)cc2)n1,0.0167

row,SMILES,z-score
1,O=C(NNC(=O)c1sccc1-n1cccc1)c1ccccc1,0.869
2,CC1CCc2sc(C(=O)OCC(=O)NCc3ccc(F)cc3)cc2C1 (stereo unspecified),-0.112
3,COC(=O)C1(C(=O)OC)NOC2C(=O)N(c3ccc(Cl)cc3Cl)C(=O)C21 (stereo unspecified),-0.186
4,COCCNC(=O)c1c[nH]n2c(=O)cc(C3CCN(C(=O)OC(C)(C)C)CC3)nc12,0.152
5,Cn1cnnc1SCC(=O)N1CCC(Cc2ccccc2)CC1,0.49
6,O=C(NN=C1CCCCCC1)C(=O)Nc1cccc(Br)c1,-0.165
7,COCC(=O)Nc1ccc(S(=O)(=O)Nc2cc(C)nc(C)n2)cc1,0.0181
8,COc1ccc(N2CCN(C(=O)c3ccc(C(C)(C)C)cc3)CC2)cc1,-0.118
9,O=C(Cc1nn[nH]n1)c1ccccc1O,-0.103
10,COCC(=O)N(Cc1cc2cc(OC)ccc2[nH]c1=O)c1ccccc1,-0.177
11,Cc1cc(NC(=O)CSc2nnc(-c3ccc4c(c3)OCCO4)o2)no1,0.479
12,C1=CC2c3ccccc3NC(c3ccncc3)C2C1 (stereo unspecified),-0.14
13,CSc1ccccc1NC(=O)CN(C)CC(=O)Nc1ccc(Cl)cc1F,-0.634
14,CC1=C(C)CC(C(=O)N2CCN(Cc3ccccc3)CC2)C(C(=O)O)C1 (stereo unspecified),0.119
15,Cn1c(SCC(=O)NC(=O)c2cccc([N+](=O)[O-])c2)nnc1-c1ccc(F)cc1,-0.599
16,Cc1ccc(Cl)cc1NC(=O)COC(=O)C1CCCCC1,-0.128
17,Cc1c(NC(=O)CSc2ccc(Cl)cc2)cccc1-c1nc2ncccc2o1,-0.212
18,Cc1c(Br)c(C(=O)N2CCc3ccccc32)nn1C,-0.182
19,CC(=O)Nc1sc(NC(=O)c2ccc(C)cc2)nc1-c1cccs1,0.14
20,C=CCn1c(SCC(=O)Nc2sccc2C#N)nc2sc(C)c(C)c2c1=O,0.0234
21,Cc1nc(C(=O)Nc2ccc(Cl)cc2)nn1-c1ccc([N+](=O)[O-])cc1,-0.385
22,O=C(COC(=O)CNC(=O)c1cccc([N+](=O)[O-])c1)Nc1nc2ccccc2s1,-0.159
23,Cc1noc(C)c1CSCC(=O)N1CCN(c2ccc([N+](=O)[O-])cc2)CC1,-0.325

row,SMILES,z-score
1,COc1ccccc1OCC(=O)N(Cc1nc(-c2ccccc2)no1)C1CCCCC1,-0.721
2,Cc1cc(C)cc(NS(=O)(=O)c2ccc(NC(=S)NC(=O)c3ccc(Br)o3)cc2)c1,2.18
3,COc1ccc(C(Nc2ccccn2)c2c(NC(=O)c3ccco3)sc(C)c2C)cc1OC (stereo unspecified),-0.456
4,COc1ccccc1NC(=S)NNC(=O)c1nn(C)cc1Cl,-0.1
5,O=S(=O)(NCc1ccccc1)c1cccc2nonc12,0.525
6,O=C(Nc1ccc2c(c1)OCO2)c1ccc[n+]([O-])c1,0.533
7,CCOc1ccc2[nH]c(C)c(CN3CCN(C)CC3)c(=O)c2c1,-0.0143
8,FC(F)(F)c1cccc(-c2cc3ccccc3nc2N2CCCC2)c1,-0.0554
9,CC(C)(C)C(=O)NC1=NCCS1,-0.255
10,CCOC(=O)Cc1csc(NC(=O)c2ccc(C)o2)n1,0.312
11,Cc1cccc(NC(=O)CSc2nnc(NC(=O)c3ccc(S(=O)(=O)N4CCOCC4)cc3)s2)c1C,-0.0933
12,O=C(CN1CCN(C(=O)c2ccccc2F)CC1)Nc1ccc(Br)cc1,-0.165
13,O=C(NCc1ccccc1)C(c1ccco1)N(C(=O)c1cnccn1)c1ccc(F)cc1 (stereo unspecified),0.0702
14,CC(=O)c1cc(-c2ccccc2)n(CC(=O)N2CCC(C)CC2)c1C,-0.584
15,Cc1ccccc1NS(=O)(=O)c1cc(C(=O)NCCC2=CCCCC2)ccc1Cl,-0.132
16,CCNC(=S)N(Cc1cccs1)Cc1cc2cc(OCC)ccc2[nH]c1=O,-0.109
17,Cc1ccc(C(=O)NC(=S)Nc2ccccc2C(F)(F)F)c(C)c1,0.996
18,CCC(=O)Nc1nnc(C)s1,0.946
19,COc1ccc(C)cc1NC(=O)COC(C)=O,-0.279
20,COc1cc(/C=C/C(=O)N2CCCc3ccccc32)cc(OC)c1OC,0.519
21,CCC1(C)Cc2ccccc2-c2c1c(=O)n(-c1ccc(C)cc1)c1nnnn21 (stereo unspecified),0.136
22,CC(CCCC(C)(C)O)NCCO (stereo unspecified),-0.0612
23,Cc1cccc(N(C(=O)Nc2ccccc2)C2=NCC(C)S2)c1 (stereo unspecified),-0.144

row,SMILES,z-score
1,O=C(Cc1ccccc1)Nn1c(-c2ccccc2)nc2ccccc2c1=O,0.516
2,COC(=O)c1cc(-c2ccc(OC)c(OC)c2)n[nH]1,-0.482
3,Cc1ccc(-n2c(N)c(C(N)=O)sc2=S)c(C)c1,-0.252
4,CC(C)CC(=O)NC(=S)NNC(=O)c1ccc([N+](=O)[O-])cc1,0.187
5,COc1ccc(CNC(=O)CN(C(=O)c2ccc(CN3CCOCC3)o2)C2CCCC2)cc1,-0.1
6,Cc1cccc(OCC(=O)N(Cc2cccs2)C2CCS(=O)(=O)C2)c1 (stereo unspecified),-0.492
7,O=C(c1ccc(COCC(F)(F)F)o1)N1CCCCCC1,-0.0813
8,CCOC(=O)N1CCN(C(=O)c2ccc3c(=O)n(CCC4=CCCCC4)c(=S)[nH]c3c2)CC1,0.221
9,CCn1c(SCc2ccc(Cl)cc2)nnc1-c1ccccc1,active: 3.4
10,CCOC(=O)c1c(NC(=O)CSc2ncnc3ccccc23)sc(C)c1C,-0.246
11,O=C(Cc1ccccc1)Nc1nonc1NC(=O)c1ccccc1,-0.763
12,CCc1cccc(C)c1NC(=O)c1ccc(CN2CCc3ccccc3C2)cc1,0.221
13,Cc1ccnc(N/C=C(/NC(=O)c2ccccc2)C(=O)N/N=C\c2ccc(F)cc2)n1,-0.188
14,CN(C)c1ccc(/C=[N+](\[O-])C2N(c3ccccc3)C(=S)SC2(C)C)cc1 (stereo unspecified),0.11
15,CC(C)(C)c1nc(S(=O)(=O)c2ccc(Cl)cc2)c(N2CCOCC2)o1,-0.0494
16,CCn1cnc2sc(C(=O)O)c(C)c2c1=O,-0.218
17,O=C(Cn1cc2c(n1)CCCCC2)N1CCc2ccccc21,0.712
18,NC(=O)C1CCN(C(=O)c2ccc(-c3ccccc3)cc2)CC1,0.99
19,O=C1CC(c2ccco2)Cc2nc(N3CCc4ccccc4C3)ncc21 (stereo unspecified),-0.109
20,COc1ccc(C(=O)C(c2ccccc2)N2CCOCC2)cc1 (stereo unspecified),2.44
21,c1ccc(-c2nc(-c3cccs3)[nH]c2-c2ccccc2)cc1,-0.425
22,CCOc1ccc(NC(=O)CN2CCN(CC(=O)Nc3ccc(F)cc3)CC2)cc1,-0.0589
23,COCc1c(C(=O)N2CCN(c3ccc(C(F)(F)F)cn3)CC2)oc2ccccc12,-0.0186

row,SMILES,z-score
1,CC1CCC(NC(=O)CN2C(=O)COc3ccc(S(=O)(=O)N4CCCC4)cc32)CC1 (stereo unspecified),-0.0735
2,COc1ccc2[nH]c(=O)c(C(c3nnnn3C3CCCC3)N(C)C3CCCCC3)cc2c1 (stereo unspecified),-0.943
3,Cc1ccc(CNC(=O)CCNS(=O)(=O)c2ccc3c(c2)c(=O)n(C)c(=O)n3C)cc1,-0.0284
4,O=C(NC(=S)NCCc1ccccc1)c1ccco1,active: 13
5,Cc1ccc(NS(=O)(=O)c2cccc(C(=O)N/N=C/c3c(C)nn(-c4ccccc4)c3N3CCCC3)c2)c(C)c1,-0.38
6,Cc1ccc(SC(C)C(=O)Nc2ccncc2)cc1 (stereo unspecified),-0.115
7,CN(Cc1ccccc1)C(=O)[C@H]1CCC(=O)N1Cc1ccco1,0.3
8,CCCCCn1c(S(=O)(=O)O)nc2ccccc21,-0.124
9,COc1cccc(/C=N\NC(=O)C2C(=O)NCC2c2ccccc2)c1O (stereo unspecified),-0.383
10,Cc1ccc(C2CC(=O)N3CN(c4ccc(Br)cc4)CSC3=C2C#N)o1 (stereo unspecified),-0.821
11,CCc1[nH]nc2c1C(c1ccc(Br)s1)C(C#N)=C(N)O2 (stereo unspecified),-1.71
12,CCC(Sc1nc2ccc(N)cc2s1)C(=O)Nc1nccs1 (stereo unspecified),-0.186
13,Brc1ccccc1C1CC(c2ccccc2)=Nc2ccccc2N1 (stereo unspecified),-0.443
14,CCOC(=O)N1CCC(NC(=O)CCc2cn(C)c3ccccc23)CC1,0.837
15,O=C(N/N=C/c1ccccc1OCC(=O)N1CCCC1)C(=O)Nc1ccccc1F,-0.172
16,COc1ccc2c(Cl)c(-c3nnc(SCC(=O)c4ccccc4)n3C)sc2c1,-0.127
17,C=CCn1c(N)c(C(=O)NCc2cccnc2)sc1=S,0.731
18,Cc1cccc(C2NC(c3cccc(C)c3)C([N+](=O)[O-])C(C)(C)C2[N+](=O)[O-])c1 (stereo unspecified),1.01
19,CCOC(=O)C1=C(C)NC(=S)N(C(C)=O)C1c1ccc(Cl)cc1 (stereo unspecified),1.27
